Target: PRMT5/MEP50 Complex (Homo sapiens (Human), UniProt O14744)
Assay: PRMT5 inhibition based on TR-FRET assay
Format: biochemical
Details: 32 nM PRMT5:MEP50 complex, 50 nM Histone-H4 peptide, 1 μM SAM, 90 minutes at room temperature
From the text: Protein arginine methyltransferase 5 (PRMT5) is a type II arginine methyltransferase that catalyze mono- and symmetric demethylation on arginine residues of histone or non-histone proteins in presence of S-adenosylmethionine (AdoMet or SAM) a cofactor responsible for donating the methyl group. PRMT5 is reported to be overexpressed in several human cancers. To identify compounds that inhibit the PRMT5 and decrease its activity, a TR-FRET based assay has been established. Time-resolved fluorescence resonance energy transfer (TR-FRET) HTS assays are homogeneous proximity assays where the interaction of two dye-labeled binding partners is detected by the energy transfer between a donor and an acceptor dye, and the subsequent light emission by the acceptor dye. PRMT5 catalyzes Histone H4 peptide which is biotin tagged to the Lysine amino acid at carboxyl end, in presence of S-adenosyl-1-methionine (SAM) to methylate the peptide. The antibody specific to mono methylated H4 peptide (H4R3) with Ig conjugate binds to the methylated peptide, indirectly binding to the Europium lanthanide. […]
The compound dilutions were prepared as 7.5% DMSO stock solutions in assay buffer. […] The plates were then read on Victor-3 with Excitation at 340 nm and Emissions collected at 615 and 665 nm in TR-FRET protocol. […]

SMILES	IC50 [µM]
CC(=O)N1CCC(c2ccc(CN3CCN(C[C@H](O)CN4CCc5ccccc5C4)C3=O)nc2)CC1 [Compound 33, (R)-1-((5-(1-acetylpiperidin-4-yl)pyridin-2-yl)methyl)-3-(3-(3,4-dihydroisoquinolin-2(1H)-yl)-2-hydroxypropyl)imidazolidin-2-one]	0.014
O=C1N(Cc2ncc(N3C4CCC3COC4)cc2F)CCN1C[C@H](O)CN1CCc2ccccc2C1 [Compound 30, 1-((5-(3-oxa-8-azabicyclo[3.2.1]octan-8-yl)-3-fluoropyridin-2-yl)methyl)-3-((R)-3-(3,4-dihydroisoquinolin-2(1H)-yl)-2-hydroxypropyl)imidazolidin-2-one]	0.092
